Source: article PMC4336329 (PLoS ONE, 2015)
Hit rate of the full screen: of about 310,000 compounds, about 2,200 (0.71%) showed an effect of 50% or more. The effect is printed as a negative number. Some of the results follow.

Molecular target: human ether-à-go-go-related gene (hERG) potassium channel (human, UniProt Q12809)
Experiment: primary screen, population patch clamp on CHO cells stably expressing hERG

human ether-à-go-go-related gene (hERG) potassium channel, sequence (Q12809 whole entry, looked up): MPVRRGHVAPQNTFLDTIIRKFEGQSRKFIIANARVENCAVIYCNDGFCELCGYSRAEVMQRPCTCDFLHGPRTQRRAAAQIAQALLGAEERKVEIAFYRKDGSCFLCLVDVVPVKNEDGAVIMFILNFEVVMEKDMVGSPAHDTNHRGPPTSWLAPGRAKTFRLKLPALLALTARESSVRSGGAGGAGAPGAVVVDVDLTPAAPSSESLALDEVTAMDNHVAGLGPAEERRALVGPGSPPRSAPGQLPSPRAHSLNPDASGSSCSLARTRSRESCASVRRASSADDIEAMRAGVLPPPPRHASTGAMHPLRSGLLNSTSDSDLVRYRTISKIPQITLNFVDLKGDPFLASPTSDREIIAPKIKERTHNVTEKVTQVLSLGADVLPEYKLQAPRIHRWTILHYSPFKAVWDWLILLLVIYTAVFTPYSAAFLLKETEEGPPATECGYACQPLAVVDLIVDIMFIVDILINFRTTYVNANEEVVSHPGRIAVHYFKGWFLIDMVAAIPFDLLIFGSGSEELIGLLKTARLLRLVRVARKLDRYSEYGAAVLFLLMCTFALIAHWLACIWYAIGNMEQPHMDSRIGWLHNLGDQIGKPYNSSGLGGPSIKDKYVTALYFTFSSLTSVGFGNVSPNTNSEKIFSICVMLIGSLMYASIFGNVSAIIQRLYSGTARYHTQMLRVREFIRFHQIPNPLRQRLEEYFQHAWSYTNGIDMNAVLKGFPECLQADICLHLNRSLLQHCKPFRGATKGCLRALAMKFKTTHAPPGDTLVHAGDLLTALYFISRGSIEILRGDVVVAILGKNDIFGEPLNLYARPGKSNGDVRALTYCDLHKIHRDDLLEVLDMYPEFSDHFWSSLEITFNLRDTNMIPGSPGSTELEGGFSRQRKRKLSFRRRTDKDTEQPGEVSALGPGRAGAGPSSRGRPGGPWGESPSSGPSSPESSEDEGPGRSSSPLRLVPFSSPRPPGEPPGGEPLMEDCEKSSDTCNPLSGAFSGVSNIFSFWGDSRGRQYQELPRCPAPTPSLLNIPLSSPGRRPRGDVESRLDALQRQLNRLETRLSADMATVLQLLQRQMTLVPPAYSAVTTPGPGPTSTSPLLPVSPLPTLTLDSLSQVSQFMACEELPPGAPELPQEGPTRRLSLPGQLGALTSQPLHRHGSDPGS

| Structure (SMILES) | hERG current change (%, negative = inhibition) at 1uM |
| --- | --- |
| CC1CCCN(S(=O)(=O)CCNC(=O)c2ccccc2)C1 (centres unmarked) | 8.86% |
| Cc1ccc(Cl)cc1NC(=O)COC(=O)CC(C)(C)C | -1.75% |
| O=C(Oc1ccccc1)c1cc2ccccc2oc1=O | 9.41% |
| CC(C)C(O)(CC#CCN1CCCC1)c1ccccc1.Cl (centres unmarked) | 17% |
| COc1cccc(/C=C/C(=O)OCC(=O)Nc2ccc(Cl)c(S(=O)(=O)N(C)C)c2)c1OC | 6.9% |
| CCN(CC)C(=O)COc1ccc(Br)cc1Cl | 15.7% |
| Cc1ccc(C2(CC(=O)Nc3nccs3)CCOC(C(C)C)C2)cc1 (centres unmarked) | 5.94% |
| C/C(CC1CC(COCCC(C)C)OC1=O)=N\NC(N)=S (centres unmarked) | 6.43% |
| O=C(NCc1ccc(OC(F)(F)F)cc1)C12CN(Cc3ccccc3)CC1C(c1cccc([N+](=O)[O-])c1)=NO2 (centres unmarked) | 21.7% |
| Cc1cc(-c2nn3c(C)nnc3s2)ccc1NC(=O)C(C)(C)C | 13.6% |
| O=C(NCCCN1CCCC1)c1ccc2c(c1)N(Cc1cccc(Cl)c1)C(=O)c1ccccc1S2=O (centres unmarked) | 3.71% |
| COc1ccc(N2C(=S)NC3N2C(=S)NC3(C)c2ccccc2)cc1 (centres unmarked) | 12% |
| COc1ccc2oc(=Nc3cccc(F)c3)c(C(N)=O)cc2c1 | 16% |
| Cc1cccc(N(Cc2ccccc2)C(=O)c2ccc(S(C)(=O)=O)cc2)c1 | 13.6% |
| COc1ccc(C(CCNCc2ccccc2F)c2ccc(F)cc2)cc1 (centres unmarked) | -0.989% |
| COc1ccc(-c2nn(-c3ccccc3)cc2/C=C2/SC(=S)N(Cc3ccco3)C2=O)c(C)c1 | -1.59% |
| Cc1nc2c(cc1C(=O)N/N=C/c1ccc(O)c(O)c1)c(=O)n(C)c(=O)n2C | 8.58% |
| C/C(=N/NC(=O)c1ccoc1C)c1ccc(N2CCOCC2)cc1 | 4.3% |
| Cc1ccccc1COc1ccc(-c2nnn(CC(=O)O)n2)cc1 | 18.2% |

| Structure (SMILES) | hERG current change (%, negative = inhibition) at 1uM |
| --- | --- |
| C/C=C/C(=O)Nc1cccc(C2=NOC3(C2)C[C@@H](C(N)=O)N(C(=O)c2cc([N+](=O)[O-])cc([N+](=O)[O-])c2)C3)c1 (some centres unmarked) | 19.4% |
| COc1ccc2c(c1)c(C(C)=O)c(C)n2-c1ccccc1OC | 6.98% |
| CC(C)CN(C(=O)COC(=O)/C=C/c1ccccc1)C1CCS(=O)(=O)C1 (centres unmarked) | 10% |
| CC(Oc1cccnc1[N+](=O)[O-])C(=O)Nc1ccc(Cl)cn1 (centres unmarked) | -1.21% |
| Cc1ccc2[nH]c(=O)c(C(c3nnnn3C(C)(C)C)N(Cc3ccco3)CC3CCCO3)cc2c1 (centres unmarked) | 12.2% |
| CCOC(=O)c1c(C)c(C(=O)NCc2cccnc2)c(C)n1CC | 10% |
| Fc1ccccc1OCCSc1nnnn1-c1ccccc1 | 3.58% |
| COc1ccc(-c2nn(CCC#N)cc2C(=O)Nc2ccc(C(C)=O)cc2)cc1 | 13.1% |
| CCOC(=O)C1=C(C)Nc2nc(C)nn2C1c1cc(OC)ccc1OC (centres unmarked) | 10.9% |
| CN(C)CCCNC(=O)COc1ccc(Br)cc1Cl | 1.49% |
| CN(CC(=O)Nc1c(Cl)cccc1Cl)C(=O)c1sccc1-c1ccccc1 | 4.52% |
| CCOC(=O)C1CCN(c2ncnc3c2c(-c2ccccc2)cn3-c2ccccc2)CC1 | 9.7% |
| Nc1nc(NCCOCCO)nc(N2CCCCCC2)c1[N+](=O)[O-] | 12.9% |
| C[C@@H]1NC(=O)/C(=C\c2ccccc2Br)NC1=O | 12.2% |
| C/C(Cl)=C/Cn1c(NCCN(C)C)nc2c1c(=O)n(C)c(=O)n2C | -12.9% |
| O=Cc1ccc(-c2ccc(Cl)cc2Cl)[nH]1 | 12.1% |
| O=C(OCC#CCSc1nnc(-c2ccccc2)o1)c1cccs1 | -1.02% |
| COc1ccc(CCNC(=O)c2n[nH]c3ccccc23)cc1 | 28.1% |
| Cc1ccc(NC(=O)C(NC2CCCc3ccccc32)c2ccccc2)c([N+](=O)[O-])c1.O=C(O)C(=O)O (centres unmarked) | 13.6% |

| Structure (SMILES) | hERG current change (%, negative = inhibition) at 1uM |
| --- | --- |
| O=C(OCC(=O)N1CCN(c2ccccc2)CC1)c1ccccc1[N+](=O)[O-] | 11.2% |
| O=Cc1sc([O-])nc1-[n+]1ccc2ccccc2c1 | 13.6% |
| CCOC(=O)N1CCN(S(=O)(=O)N2CCCC(C(=O)NCCc3ccc(C)cc3)C2)CC1 (centres unmarked) | 13.2% |
| CCCCCc1nnc(NC(=O)c2ccc3nc[nH]c3c2)s1 | 7.22% |
| O=C(Cc1ccccc1)NNC(=O)Nc1cccc(Cl)c1 | 13.6% |
| COc1ccc(CCNCc2cc3ccc(C)cc3[nH]c2=O)cc1OC | -53.5% |
| Cn1c(Cc2ccccc2)nnc1SCC(=O)N1CCOCC1 | 5.94% |
| Cc1cc(C)n(CCNC(=O)c2ccc3c(c2)OCO3)n1 | 15.8% |
| COc1ccc(Cl)cc1-n1c(C)cc(C(=O)O)c1C | 12.4% |
| CCn1c(SCC(=O)Nc2ccc(OC)cc2)nnc1-c1ccco1 | 10.9% |
| Cc1c2ccccc2nc2c(F)c(N(C)C)c(F)c(F)c12 | 19.7% |
| Cn1c(=O)cc(SCC(=O)N2CCN(Cc3ccc4c(c3)OCO4)CC2)c2ccccc21 | 5.43% |
| N/C(=N\OC(=O)COc1ccccc1Cl)c1ccc(Cl)cc1 | 10.5% |
| CC1Oc2cc3oc4c(O)c(O)ccc4c(=O)c3c(O)c2C1(C)C (centres unmarked) | 14.4% |
| CCN(CC)S(=O)(=O)c1ccc(S(=O)(=O)N2CCC(N3CCCCC3)CC2)cc1 | 3.19% |
| CCC(C)NC(=O)C1c2ccccc2C(=O)N1Cc1ccc(OC)cc1OC (centres unmarked) | 16.3% |
| Cc1c(N2CCCC2)cc2c(c1N)C(C)(C)CC2(C)C | 8.42% |
| COc1ccc(OC)c(Nc2nc(-c3ccc(O)c(O)c3)cs2)c1 | 12.9% |
